According to PubChem BioAssay AID504332 (National Center for Advancing Translational Sciences (NCATS), 2011):
Among all 350,000 compounds or so, about 31,000 (8.9%) were called active. The inconclusive results got no clear call from the source; some entries with a clear call stand among them for comparison. Calls follow the shape of the dose curve; as a rule, active = well fitted inhibition curve with a large enough effect; inconclusive = small, poorly fitted or top-dose-only effect; inactive = no such curve, though single readings can be large or run the other way. A potency beside an inconclusive call is a rough fit, not a confirmed value.
% is scaled to controls: 0 for no effect and ±100 for the full control effect; potency is read from the fitted curve at half-maximal effect; tags tell the direction and shape of the fitted curve.
Also: nearly all actives have a fitted effect of over 75% in size.

These compounds were tested against Histone-lysine N-methyltransferase EHMT2 (Homo sapiens) (UniProt Q96KQ7) (assay: qHTS Assay for Inhibitors of Histone Lysine Methyltransferase G9a). Conditions: G9a H3K9 monomethylation, AlphaScreen, 2 h; activity, negative = inhibition: at 59 µM (top of the series) unless noted.
Chain of UniProt Q96KQ7 (Q96KQ7 whole entry, looked up): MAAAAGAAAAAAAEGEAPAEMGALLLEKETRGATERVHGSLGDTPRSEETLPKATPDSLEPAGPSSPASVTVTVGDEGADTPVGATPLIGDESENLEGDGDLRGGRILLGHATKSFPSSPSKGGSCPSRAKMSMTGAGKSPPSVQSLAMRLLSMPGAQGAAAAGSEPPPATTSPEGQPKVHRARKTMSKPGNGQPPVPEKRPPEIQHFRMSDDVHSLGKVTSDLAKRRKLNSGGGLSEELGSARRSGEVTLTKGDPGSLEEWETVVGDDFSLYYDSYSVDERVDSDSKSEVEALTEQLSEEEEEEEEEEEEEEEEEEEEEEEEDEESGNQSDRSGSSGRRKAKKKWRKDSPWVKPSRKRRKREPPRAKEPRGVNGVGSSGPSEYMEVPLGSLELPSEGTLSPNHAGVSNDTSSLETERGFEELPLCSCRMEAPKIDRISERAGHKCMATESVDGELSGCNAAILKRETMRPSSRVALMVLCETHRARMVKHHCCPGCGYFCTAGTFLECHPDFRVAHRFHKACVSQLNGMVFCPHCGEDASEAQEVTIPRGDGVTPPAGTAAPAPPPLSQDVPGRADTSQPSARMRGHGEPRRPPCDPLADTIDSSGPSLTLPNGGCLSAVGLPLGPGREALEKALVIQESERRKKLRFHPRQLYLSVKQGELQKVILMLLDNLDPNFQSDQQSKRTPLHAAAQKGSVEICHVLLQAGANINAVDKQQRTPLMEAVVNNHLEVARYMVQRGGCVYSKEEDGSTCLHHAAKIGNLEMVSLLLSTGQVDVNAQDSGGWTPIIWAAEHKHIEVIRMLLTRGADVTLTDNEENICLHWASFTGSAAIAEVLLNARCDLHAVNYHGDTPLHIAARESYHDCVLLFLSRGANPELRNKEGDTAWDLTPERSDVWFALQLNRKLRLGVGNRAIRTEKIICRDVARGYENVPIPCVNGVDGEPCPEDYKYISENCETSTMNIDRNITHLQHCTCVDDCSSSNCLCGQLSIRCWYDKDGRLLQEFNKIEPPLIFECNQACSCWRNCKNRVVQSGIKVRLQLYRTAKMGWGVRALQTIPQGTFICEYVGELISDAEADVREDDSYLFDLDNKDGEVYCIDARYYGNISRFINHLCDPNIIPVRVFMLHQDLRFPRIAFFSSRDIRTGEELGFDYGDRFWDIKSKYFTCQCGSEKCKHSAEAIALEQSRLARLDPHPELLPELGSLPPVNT
Summary of the method: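 AlphaScreen detection with an anti-monomethyl H3K9 antibody quantified product after a 2 h room-temperature reaction containing 500 nM biotinylated H3K9 peptide, 20 µM SAM and 20 nM enzyme, which had been preincubated 15 min with compound.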
With `Cc1ccc(N2CCN(S(=O)(=O)c3c(C)[nH]c(=O)[nH]c3=O)CC2C)cc1` (centres undefined) the Potency was inconclusive: 25.1 µM [inhibitor, partial curve, poor fit]. With `O=C(N/N=C/c1cn(-c2ccccc2)nc1-c1cc2ccccc2o1)c1ccncc1` the “activity, negative = inhibition” value was inactive: -1.59%. For `CCOc1ccc(C2/C(=C(\O)c3ccc(OC)c(OC)c3)C(=O)C(=O)N2c2cc(C)on2)cc1OC` (centres undefined), the Potency was inconclusive: 3.98 µM [inhibitor, single point]. In the case of `CC(C)Sc1oc(-c2ccco2)nc1S(=O)(=O)c1ccc(F)cc1`, the Potency is reported as active: 10 µM. For `COC(=O)CC(=O)CSc1nc(C)cc(C)c1C#N`, the Potency was inconclusive: 0.794 µM [inhibitor, single point]. For `O=C(O)CCN1C(=O)c2ccc(NC(=O)c3ccco3)cc2C1=O`, the Potency was inconclusive: 50.1 µM [inhibitor, partial curve]. With `CC(=O)c1ccc(O)c(CSC2=NCCS2)c1` the “activity, negative = inhibition” value was inactive: -2.61% [at 102 µM]. `CCN(CC)c1nc2ccccc2[nH]1` was tested, and the “activity, negative = inhibition” value was inactive: 2.77% [at 102 µM]. For `O=c1cc(CSc2n[nH]c(-c3ccncc3)n2)nc2sccn12`, the Potency was inconclusive: 39.8 µM [inhibitor, partial curve, poor fit]. `Cc1cc(/C=N\NC(=O)COc2cccc3cccnc23)c(C)n1-c1ccc(Br)cc1` was tested, and the Potency was inconclusive: 25.1 µM [inhibitor, single point]. With `CCCCn1c(N)c(N(CC(C)C)C(=O)c2ccc(N3C(=O)CCC3=O)cc2)c(=O)[nH]c1=O` the Potency was inconclusive: 56.2 µM [inhibitor, partial curve, poor fit]. In the case of `O=C(Cc1ccccc1)c1nc2ccccc2s1`, the Potency is reported as inconclusive: 31.6 µM [inhibitor, single point]. `COc1cc(/C=C/C(=O)Nc2nnc(C(C)(C)C)s2)cc(OC)c1OC` was tested, and the Potency was active: 4.47 µM. In the case of `O=[N+]([O-])c1ccc2nc(SCc3ccccc3Cl)sc2c1`, the Potency is reported as inconclusive: 79.4 µM [inhibitor, single point]. With `COc1cc2ccc(=O)oc2cc1O` the activity, negative = inhibition was inactive: -44.6% [at 12.7 µM]. For `CCCn1nnc(NC(=O)COc2ccc(C3CCCCC3)cc2)n1`, the activity, negative = inhibition was inactive: -6.59% [at 12.7 µM]. In the case of `O=C(Nc1ccc2c(c1)CCC2)c1cc(S(=O)(=O)Nc2ccc(F)cc2)c(Cl)cc1Cl`, the Potency is reported as active: 10 µM. For `CN1CCN(C(=O)c2ccc(N(C)S(=O)(=O)c3cccs3)cc2)CC1`, the Potency was inconclusive: 39.8 µM [inhibitor, partial curve, poor fit]. In the case of `COC(=O)C1CCN(C(=O)Nc2ccccc2)CC1`, the Potency is reported as inconclusive: 0.398 µM [inhibitor, partial curve, poor fit]. In the case of `O=C1N/C(=C/c2ccc(N3CCOCC3)cc2)C(=O)N1Cc1ccc(F)cc1`, the “activity, negative = inhibition” value is reported as inactive: 11.2%. With `Fc1ccccc1NC(=S)Nn1cnnc1` the Potency was active: 3.98 µM. With `COc1ccc(NS(=O)(=O)c2ccc(F)c(F)c2F)cc1S(=O)(=O)N1CCOCC1` the activity, negative = inhibition was inactive: 12.1% [at 12.7 µM]. With `O=C1NC(=Nc2ccc(O)cc2)S/C1=C\C=C\c1ccco1` the Potency was active: 50.1 µM. In the case of `c1ccc(-c2noc(CSc3nnnn3C3CCCCC3)n2)cc1`, the “activity, negative = inhibition” value is reported as inactive: 140% [at 102 µM]. In the case of `COc1ccc(C(=O)NCC2CCCO2)cc1` (centres undefined), the “activity, negative = inhibition” value is reported as inactive: -37.4% [at 102 µM]. `CN(C)c1ccc(C2N(C)C(=O)c3ccccc3N2C)cc1` (centres undefined) was tested, and the Potency was inconclusive: 0.708 µM [inhibitor, partial curve, poor fit]. In the case of `Nc1c(N(Cc2ccco2)C(=O)COc2ccccc2Cl)c(=O)[nH]c(=O)n1Cc1ccccc1`, the Potency is reported as inconclusive: 11.2 µM [inhibitor, single point]. With `CN(C)C(=O)N1CCC(C(=O)NC2CCCCCCC2)CC1` the Potency was inconclusive: 70.8 µM [inhibitor, partial curve, poor fit]. In the case of `O=C(O)C1CC(=O)N(Cc2ccc(F)cc2)C1` (centres undefined), the activity, negative = inhibition is reported as inactive: -29.9% [at 12.7 µM]. With `Fc1ccc(Nc2nc(-c3ccncc3)nc3ccccc23)cc1` the “activity, negative = inhibition” value was inactive: -5.74%. For `COc1cccc(CN2C(=O)C3CCCN3c3ccc(S(=O)(=O)N4CCOCC4)cc32)c1` (centres undefined), the Potency was inconclusive: 4.47 µM [inhibitor, single point]. `Cc1ccc2c(=O)cc(C(=O)Nc3ccc(S(=O)(=O)N4CCCCCC4)cc3)oc2c1` was tested, and the “activity, negative = inhibition” value was inactive: 0.993%. For `O=C(NNC(=S)NC(=O)c1cccs1)c1ccc(O)cc1`, the Potency was active: 39.8 µM. For `O=C(Nn1cnnc1)c1ccc(Cl)c(Cl)c1`, the Potency was inconclusive: 70.8 µM [inhibitor, partial curve, poor fit]. With `Nc1cccc2cc(-c3ccccc3)oc12` the activity, negative = inhibition was inactive: -6.93% [at 12.7 µM]. With `COc1cc(C(CCN2CCN(c3ccccc3)CC2)c2c(OC)cc(OC)c3c(C)cc(=O)oc23)cc(OC)c1OC` (centres undefined) the “activity, negative = inhibition” value was inactive: -119%. `CC1=C(C(=O)Nc2ccccc2C(F)(F)F)C(c2ccc(C)s2)NC(=S)N1` (centres undefined) was tested, and the “activity, negative = inhibition” value was inactive: -10.2% [at 102 µM]. `Cc1ccccc1OCC(=O)Nc1ccc(S(=O)(=O)N2CCCC2)cc1` was tested, and the Potency was inconclusive: 39.8 µM [inhibitor, partial curve, poor fit]. In the case of `CCOC(=O)N1C2C=C(C)[C@@H]2[C@@H]2CC(=O)N21` (some centres undefined), the “activity, negative = inhibition” value is reported as inactive: 12.5%. With `O=C1CSC2(CCN(CCCN3c4ccccc4Sc4ccc(Cl)cc43)CC2)N1` the Potency was active: 17.8 µM. `CCCC(=O)OCCNc1cc(SCc2ccco2)c2nonc2c1[N+](=O)[O-]` was tested, and the Potency was active: 20 µM. With `O=C(c1cc([N+](=O)[O-])ccc1Cl)N1CCN(Cc2ccccc2)CC1` the Potency was active: 70.8 µM. `COc1ccc(S(=O)(=O)N(CC(=O)O)c2ccccn2)cc1` was tested, and the Potency was inconclusive: 25.1 µM [inhibitor, partial curve, poor fit]. In the case of `COc1cccc(CNC(=O)CCNC(=O)N2CCn3c2nc2ccccc23)c1`, the Potency is reported as inconclusive: 89.1 µM [inhibitor, single point]. `C=CCN1C(=O)C(CC(=O)Nc2ccc(OC)cc2)N(Cc2ccco2)C1=S` (centres undefined) was tested, and the Potency was inconclusive: 79.4 µM [inhibitor, single point]. In the case of `COc1cc(Cl)c(C)cc1NC(=S)NN`, the Potency is reported as active: 6.31 µM. With `CC(=O)NNC(=O)c1sc(=S)n2c1[nH]c(=O)c1sccc12` the Potency was active: 12.6 µM. `CCOC(=O)C1C(c2cc(OC)c(OC)c(OC)c2)NC(=S)NC1(O)C(F)(F)F` (centres undefined) was tested, and the Potency was inconclusive: 35.5 µM [inhibitor, single point]. With `CCN(Cc1ccccc1)C(=O)Cn1c(=O)n(-c2ccc(Cl)cc2)c(=O)c2c(C)c(C)sc21` the “activity, negative = inhibition” value was inactive: 4.88%. In the case of `Cc1ccc2c(c1)C=CC(C)(C)S2=O` (centres undefined), the “activity, negative = inhibition” value is reported as inactive: 4.71%. In the case of `CCN1CCc2nc(NC(=O)C(c3ccccc3)c3ccccc3)sc2C1`, the Potency is reported as inconclusive: 79.4 µM [inhibitor, single point]. `COc1ccc(S(=O)(=O)Nc2ccc(-n3cccc3)cc2)cc1` was tested, and the Potency was active: 50.1 µM. With `COc1ccc(OC)c(/C=N/NC(=O)CCN2CCN(C(c3ccccc3)c3ccccc3)CC2)c1` the Potency was active: 10 µM. `Cc1ccc(C)c(Cn2c(=O)n(-c3ccc(Cl)cc3)c(=O)c3c(C)c(C)sc32)c1` was tested, and the “activity, negative = inhibition” value was inactive: -9.98%. For `COc1ncc2ncc(=O)n(C3CC3)c2n1`, the activity, negative = inhibition was inactive: -17.5% [at 0.501 µM]. `COc1ccc(C(=O)Nc2cnc(NC(=O)c3cccs3)cc2C)cc1` was tested, and the “activity, negative = inhibition” value was inactive: -6.88% [at 102 µM]. In the case of `COc1cccc(NC(=O)Cn2c(-c3cncs3)nc3ccccc32)c1`, the Potency is reported as inconclusive: 14.1 µM [inhibitor, partial curve]. In the case of `FC(F)(F)c1ccc2c(c1)n(Cc1ccccc1)c1[n+]2CCCCC1`, the Potency is reported as active: 28.2 µM. In the case of `C[n+]1cccc(C(=O)Nc2ccccc2)c1`, the Potency is reported as inconclusive: 79.4 µM [inhibitor, single point]. For `CCOc1cc(CNc2ccc(OC)cc2)cc(Br)c1OCC(=O)NC(C)(C)C`, the activity, negative = inhibition was inconclusive: -106% [inhibitor]. For `Cc1ccc(Cn2c(=O)n(Cc3ccco3)c(=O)c3oc4ccccc4c32)cc1`, the “activity, negative = inhibition” value was inactive: -18.5%. With `COc1ccc2c(c1)C=CC1(O2)N(CCO)c2ccccc2C1(C)C` (centres undefined) the Potency was inconclusive: 35.5 µM [inhibitor, single point]. `CC1CCCCC1NC(=O)c1ccc(-n2cncn2)c([N+](=O)[O-])c1` (centres undefined) was tested, and the Potency was inconclusive: 89.1 µM [inhibitor, single point]. With `C#CCOCCOCCOCCNc1nc(N2CCN(C(=O)[C@H]([C@@H](C)CC)n3cc(CCCCN)nn3)CC2)nc(N2CCN(C(=O)[C@H](C)n3cc(CCC(=O)O)nn3)CC2)n1` the Potency was active: 79.4 µM. For `O=[N+]([O-])c1cccc2ccc(/C=C/c3cccc(Br)c3)nc12`, the Potency was inconclusive: 39.8 µM [inhibitor, single point]. `Cc1ccc(C(=O)C(c2ccccc2)N2Cc3ccccc3C2=N)cc1` (centres undefined) was tested, and the Potency was active: 11.2 µM. With `Cc1ccc(/C=C/C(=O)Nc2cccc3ncccc23)o1` the activity, negative = inhibition was inconclusive: -131% [inhibitor]. For `CCCN1CCc2c(sc(NC(=O)C3CCN(S(=O)(=O)c4cccs4)CC3)c2C(N)=O)C1`, the Potency was inconclusive: 79.4 µM [inhibitor, partial curve, poor fit]. `COc1cnc(-c2ccccn2)nc1Oc1c(C)cccc1C` was tested, and the Potency was inconclusive: 89.1 µM [inhibitor, single point]. With `O=C(Nc1ccccc1C(=O)N1CCN(c2cccc(Cl)c2)CC1)C1=CSCCO1` the “activity, negative = inhibition” value was inactive: 31.7%. For `CC(C)n1ncc(N2CCOCC2)c(Cl)c1=O`, the “activity, negative = inhibition” value was inactive: -5.46% [at 102 µM]. In the case of `CC(C)C(C(=O)NCc1ccco1)N(C(=O)CNS(=O)(=O)c1ccccc1)c1ccccc1` (centres undefined), the Potency is reported as inconclusive: 5.62 µM [inhibitor, full curve]. `O=C(CSCc1ccc([N+](=O)[O-])cc1)N/N=C/c1cccnc1` was tested, and the Potency was active: 25.1 µM. `COc1ccc(C(=O)OCc2ccc(C)cc2)cc1S(=O)(=O)N1CCOCC1` was tested, and the Potency was inconclusive: 0.631 µM [inhibitor, partial curve, poor fit].
